Measurements reported in patent publication US11618753B2 (priority 2018, dated 2023).

Test system: MLKL phosphorylation, HT29-L23 human colorectal adenocarcinoma cells
Experiment: cells
Conditions: read-out: pMLKL HCS Cell Assay (IC50, uM)

Point of comparison: `CC(C)(F)C(=O)N1C[C@H](F)[C@H](NC(=O)c2cc(F)cc(-c3cc(C(F)(F)F)c4c(N)ncnn34)c2)C1` [Example 599, 3-[4-amino-5-(trifluoromethyl)pyrrolo[2,1-f][1,2,4]triazin-7-yl]-5-fluoro-N-[(3R,4S)-4-fluoro-1-(2-fluoro-2-methylpropanoyl)pyrrolidin-3-yl]benzamide], IC50 0.029 µM. Against it:
- COc1cc(-c2cc(C(F)(F)F)c3c(N)ncnn23)cc(C(=O)N[C@@H]2CN(C(=O)CC(C)C(F)(F)F)C[C@@H]2F)c1OC (stereo partly drawn) [Example 591, 5-[4-amino-5-(trifluoromethyl)pyrrolo[2,1-f][1,2,4]triazin-7-yl]-N-[(3R,4S)-4-fluoro-1-(4,4,4-trifluoro-3-methylbutanoyl)pyrrolidin-3-yl]-2,3-dimethoxybenzamide] — 8.2-fold higher, 0.237 µM
- COc1cc(-c2cc(C(F)(F)F)c3c(N)ncnn23)cc(C(=O)N[C@@H]2CN(C(=O)CC(O)(C(F)(F)F)C(F)(F)F)C[C@@H]2F)c1OC [Example 593, 5-[4-amino-5-(trifluoromethyl)pyrrolo[2,1-f][1,2,4]triazin-7-yl]-N-[(3R,4S)-4-fluoro-1-[4,4,4-trifluoro-3-hydroxy-3-(trifluoromethyl)butanoyl]pyrrolidin-3-yl]-2,3-dimethoxybenzamide] — within 1.5-fold, 0.039 µM
- COc1cc(-c2cc(C(F)(F)F)c3c(N)ncnn23)cc(C(=O)N[C@@H]2CN(C(=O)c3ccccc3F)C[C@@H]2F)c1OC [Example 594, 5-[4-amino-5-(trifluoromethyl)pyrrolo[2,1-f][1,2,4]triazin-7-yl]-N-[(3R,4S)-4-fluoro-1-(2-fluorobenzoyl)pyrrolidin-3-yl]-2,3-dimethoxybenzamide] — 8.4-fold higher, 0.245 µM
- COc1cc(-c2cc(C(F)(F)F)c3c(N)ncnn23)cc(C(=O)N[C@@H]2CN(C(=O)CC(C(F)(F)F)C(F)(F)F)C[C@@H]2F)c1OC [Example 595, 5-[4-amino-5-(trifluoromethyl)pyrrolo[2,1-f][1,2,4]triazin-7-yl]-N-[(3R,4S)-4-fluoro-1-[4,4,4-trifluoro-3-(trifluoromethyl)butanoyl]pyrrolidin-3-yl]-2,3-dimethoxybenzamide] — 7-fold higher, 0.202 µM
- Nc1ncnn2c(-c3cc(F)cc(C(=O)N[C@@H]4CN(C(=O)[C@@H](O)C(F)(F)F)C[C@@H]4F)c3)cc(C(F)(F)F)c12 [Example 596, 3-[4-amino-5-(trifluoromethyl)pyrrolo[2,1-f][1,2,4]triazin-7-yl]-5-fluoro-N-[(3R,4S)-4-fluoro-1-[(2R)-3,3,3-trifluoro-2-hydroxypropanoyl]pyrrolidin-3-yl]benzamide] — 8.7-fold higher, 0.253 µM
- CC(C)(C(=O)N1C[C@H](F)[C@H](NC(=O)c2cc(F)cc(-c3cc(C(F)(F)F)c4c(N)ncnn34)c2)C1)C(F)(F)F [Example 598, 3-[4-amino-5-(trifluoromethyl)pyrrolo[2,1-f][1,2,4]triazin-7-yl]-5-fluoro-N-[(3R,4S)-4-fluoro-1-(3,3,3-trifluoro-2,2-dimethylpropanoyl)pyrrolidin-3-yl]benzamide] — within 1.5-fold, 0.028 µM
- CC(C)C(=O)N1C[C@H](F)[C@H](NC(=O)c2cc(F)cc(-c3cc(C(F)(F)F)c4c(N)ncnn34)c2)C1 [Example 600, 3-[4-amino-5-(trifluoromethyl)pyrrolo[2,1-f][1,2,4]triazin-7-yl]-5-fluoro-N-[(3R,4S)-4-fluoro-1-(2-methylpropanoyl)pyrrolidin-3-yl]benzamide] — 2.5-fold higher, 0.072 µM
- CC(C)CC(=O)N1C[C@H](F)[C@H](NC(=O)c2cc(F)cc(-c3cc(C(F)(F)F)c4c(N)ncnn34)c2)C1 [Example 601, 3-[4-amino-5-(trifluoromethyl)pyrrolo[2,1-f][1,2,4]triazin-7-yl]-5-fluoro-N-[(3R,4S)-4-fluoro-1-(3-methylbutanoyl)pyrrolidin-3-yl]benzamide] — 1.7-fold lower, 0.017 µM
- Nc1ncnn2c(-c3cc(F)cc(C(=O)N[C@@H]4CN(C(=O)CC(F)(F)F)C[C@@H]4F)c3)cc(C(F)(F)F)c12 [Example 603, 3-[4-amino-5-(trifluoromethyl)pyrrolo[2,1-f][1,2,4]triazin-7-yl]-5-fluoro-N-[(3R,4S)-4-fluoro-1-(3,3,3-trifluoropropanoyl)pyrrolidin-3-yl]benzamide] — 3.3-fold higher, 0.095 µM
